Laboratory results taken from PubChem BioAssay AID1476 (National Center for Advancing Translational Sciences (NCATS), 2009).
About 4,500 (2.2%) of roughly 200,000 compounds were called active. The inconclusive results got no clear call from the source; some entries with a clear call stand among them for comparison. The call rests on the fitted dose curve; in most records, active means well fitted inhibition curve with a large enough effect; inconclusive means small, poorly fitted or top-dose-only effect, or effect the other way; inactive means flat fitted curve, though single readings scatter. Potencies beside an inconclusive call are fits to weak or partial responses and may not hold up.
Further: nearly all actives have a fitted effect of over 40% in size.
Potency means the concentration at half of the fitted maximal effect; tags describe the fitted curve by direction and shape.
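Wherever max response, negative = inhibition is given: plate controls were enzyme without inhibitor for no effect and buffer without enzyme for full effect.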

These compounds were tested against Cruzipain (Trypanosoma cruzi) (UniProt P25779) (assay: qHTS Assay for Promiscuous and Specific Inhibitors of Cruzain (without detergent)). Conditions: purified cruzain, Z-FR-AMC fluorescence, no detergent.
Sequence of UniProt P25779 (P25779 whole entry, looked up): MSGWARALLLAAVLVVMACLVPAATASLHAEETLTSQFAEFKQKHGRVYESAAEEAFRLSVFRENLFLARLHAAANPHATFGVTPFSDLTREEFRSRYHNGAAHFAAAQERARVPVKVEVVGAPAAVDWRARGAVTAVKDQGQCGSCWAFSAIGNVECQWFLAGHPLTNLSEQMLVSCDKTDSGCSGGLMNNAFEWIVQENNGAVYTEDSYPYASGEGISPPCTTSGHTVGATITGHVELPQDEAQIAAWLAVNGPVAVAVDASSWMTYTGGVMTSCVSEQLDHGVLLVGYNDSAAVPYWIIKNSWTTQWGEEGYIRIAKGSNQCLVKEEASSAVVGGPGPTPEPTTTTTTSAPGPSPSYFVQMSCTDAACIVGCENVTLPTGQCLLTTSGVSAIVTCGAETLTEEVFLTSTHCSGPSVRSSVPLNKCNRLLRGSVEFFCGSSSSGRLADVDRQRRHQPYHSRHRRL
Summary of the method: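 Detergent-free condition (0.00005% Triton X-100) in acetate buffer pH 5.5 with DTT. 1.5 nM enzyme and compound were pre-mixed 15 min, then 2 uM Z-FR-AMC substrate added; reaction progress from fluorescence change between first and third reads (60 s).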
For `O=C(CSc1nc2ccc(Nc3nc(N4CCOCC4)nc(N4CCOCC4)n3)cc2s1)N1CCOCC1`, the Potency was inconclusive: 25.1 µM [activator, single point].
`CCc1ccc(S(=O)(=O)c2nnn3c2nc(NCc2ccccc2)c2cc(Cl)ccc23)cc1` was tested, and the Potency was inconclusive: 3.16 µM [inhibitor, single point].
With `COc1ccc(-c2nnn(CC(=O)N(CC(=O)NCCC(C)C)Cc3cccs3)n2)cc1OC` the Potency was inconclusive: 39.8 µM [activator, single point].
With `COc1ccc(NC(=O)c2[nH]nc3c2CSc2ccccc2-3)c(OC)c1` the max response, negative = inhibition was inactive: 6.47%.
`Cc1cc(C)cc(-n2ccnc2SCC(=O)Nc2ccc(C)c(Cl)c2)c1` was tested, and the max response, negative = inhibition was inactive: 16.5%.
For `Cc1cc(C)n2c(Nc3cccc(C(F)(F)F)c3)c(-c3ccsc3)nc2n1`, the max response, negative = inhibition was inactive: -3.33%.
In the case of `COc1ccc(-c2csc(-c3c(N)c(C(=O)c4ccccc4)n4ccccc34)n2)cc1`, the Potency is reported as inconclusive: 7.94 µM [activator, partial curve, poor fit].
In the case of `CCn1cc2nc(SCc3cccc(F)c3)n(CCc3ccccc3)c(=O)c2n1`, the Potency is reported as inconclusive: 31.6 µM [activator, single point].
`COc1ccc(Cl)cc1NC(=O)CCCS(=O)(=O)c1nc(-c2ccc(OC)c(OC)c2)cc(C(F)(F)F)n1` was tested, and the Potency was inconclusive: 15.8 µM [activator, single point].
In the case of `O=C(Nc1cnn(C23CC4CC(CC(C4)C2)C3)c1)c1cc(-c2ccccc2)on1`, the Potency is reported as inconclusive: 39.8 µM [inhibitor, single point].
With `Cc1cc(C)nc(SCc2cc(=O)c(OC(=O)c3ccc(S(=O)(=O)N(C)C)cc3)co2)n1` the Potency was inconclusive: 39.8 µM [activator, single point].
`COc1ccc(-c2cc(C(=O)N/N=C/c3ccc4c(c3)OCO4)c3ccccc3n2)c(OC)c1` was tested, and the Potency was inconclusive: 39.8 µM [inhibitor, single point].
In the case of `COc1ccc(-c2cc(C(=O)OCC(=O)c3ccc(C)c([N+](=O)[O-])c3)c3ccccc3n2)cc1`, the Potency is reported as active: 10 µM.
In the case of `CCOc1ccccc1C(=O)N1CCCCC1CCN1CCOCC1` (configuration not stated), the max response, negative = inhibition is reported as inactive: -15.6%.
With `Cc1ccc(-c2n[nH]c3c2C(c2cccs2)N(c2ccc(Cl)cc2)C3=O)cc1` (configuration not stated) the Potency was inconclusive: 39.8 µM [inhibitor, single point].
`Cc1ccc(C)c(C(=O)CSc2nc3cc(C(=O)NC4CCCC4)ccc3c(=O)n2CC2CCCO2)c1` (configuration not stated) was tested, and the max response, negative = inhibition was inactive: -20.2%.
`Cc1cc(C)nc(N2CCC(C(=O)N3CCN(c4cc(Cl)ccc4C)CC3)CC2)n1` was tested, and the Potency was inconclusive: 25.1 µM [activator, single point].
